Measured values reported in the supplement of paper PMC3334620.
Over roughly 33,000 sequences, “E-score (-0.5 to 0.5)” has its median near -0.036; the highest 2% begin near 0.37. The list shows a part of the results.

molecular target: T1, Yer064c (UniProt P40041); assay: PBM E-score (8-mer binding enrichment) (E-score (-0.5 to 0.5)); higher = stronger / more preferred TF binding; most listed sequences are background and not binding sites; conditions: protein concentration: 200 nM; construct: GST-full length
T1 sequence: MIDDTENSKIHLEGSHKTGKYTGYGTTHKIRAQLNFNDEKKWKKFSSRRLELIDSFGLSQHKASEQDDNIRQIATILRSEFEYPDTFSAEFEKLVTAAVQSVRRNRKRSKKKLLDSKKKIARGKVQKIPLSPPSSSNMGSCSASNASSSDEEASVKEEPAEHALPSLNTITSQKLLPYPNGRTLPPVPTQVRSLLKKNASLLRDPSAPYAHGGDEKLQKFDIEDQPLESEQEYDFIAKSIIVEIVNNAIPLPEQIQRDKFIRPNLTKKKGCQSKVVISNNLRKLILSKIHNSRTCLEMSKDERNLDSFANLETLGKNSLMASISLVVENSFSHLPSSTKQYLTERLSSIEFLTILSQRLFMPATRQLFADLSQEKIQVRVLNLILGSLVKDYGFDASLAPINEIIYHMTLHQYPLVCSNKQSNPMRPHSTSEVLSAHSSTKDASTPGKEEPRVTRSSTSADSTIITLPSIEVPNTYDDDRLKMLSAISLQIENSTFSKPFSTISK
Summary of the method: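 GST-tagged yeast TFs (full-length or DNA-binding domain) were made by PURExpress in vitro transcription/translation and applied at about 100-200 nM to universal all-10-mer Agilent arrays. The arrays were made double-stranded by primer extension, on fresh or once-stripped slides. Bound protein was detected with fluorescent anti-GST, and scans were normalised with masliner. Each ungapped eight-base word, pooled with its reverse complement, received an E-score (modified Wilcoxon-Mann-Whitney statistic) from the Universal PBM Analysis Suite.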

Row | Sequence | PBM E-score
1 | TACCCGGA | -0.095
2 | CCGAGTCA | 0.467
3 | GATAAAAC | 0.1
4 | AGTCAGCC | 0.458
5 | CCAATGGC | -0.156
6 | CACCAAAA | 0.0598
7 | AGGAGTGG | -0.274
8 | CACTAGGC | -0.0241
9 | ATCGGTAG | -0.0111
10 | ACCAGGGC | -0.183
11 | CAATCATA | 0.371
12 | TAAGGGCA | -0.0703
13 | TCTGGTCA | 0.0409
14 | ACTACGGA | 0.0965
15 | AACACTGC | -0.111
16 | ATTCAAGC | 0.243
17 | ATAAAGAA | 0.0719
18 | ACTATTAG | 0.205
19 | CATGTAAA | -0.0585
20 | AAAAGGTA | 0.00329
21 | ACTCCGAA | 0.117
22 | AATACCAT | 0.165
23 | GGAAGACA | 0.039
24 | TAGTCATA | 0.489
25 | CAAATGAA | 0.111

Row | Sequence | PBM E-score
26 | TCCCCCCA | -0.265
27 | CCCGCAGA | -0.167
28 | GCGGTTTA | -0.0334
29 | ATGCGATA | -0.0494
30 | ATGCGAGG | -0.0534
31 | AATCCTAG | 0.0565
32 | GCCTTGAA | -0.123
33 | TCTACACA | 0.0654
34 | AAAACCCC | -0.275
35 | ATAGTTTG | -0.0035
36 | AAGTTCCA | -0.2
37 | CAAGGGCC | -0.122
38 | AGCCACGC | 0.031
39 | AAATTGCC | -0.0755
40 | TAAAGTTA | 0.106
41 | GAGGCTCC | -0.268
42 | CCGCGACC | -0.121
43 | CCCGGTCG | -0.316
44 | ATGGCTCC | 0.256
45 | AAACGTTC | -0.234
46 | CAGCAACG | 0.0955
47 | GGACGACC | -0.23
48 | AGCTAGAA | -0.0011
49 | AGCTGAGA | 0.166
50 | AGTGCACG | -0.084

Row | Sequence | PBM E-score
51 | CGATTGCC | -0.137
52 | CGCCGCAA | -0.235
53 | CGCTCCTA | -0.0744
54 | ACTTGACT | 0.412
55 | AGGTTTTA | -0.113
56 | CAATATGC | -0.0206
57 | ATCGCGTC | -0.108
58 | AGCAAAAG | -0.271
59 | CCTAGAAA | -0.0302
60 | CTCGATAC | 0.0266
61 | AAGTGTAT | -0.024
62 | CCTATCAA | -0.14
63 | CAGCGGCG | 0.18
64 | CGCAGGAA | -0.0939
65 | TACTTAAA | 0.104
66 | TGTAAAAA | -0.12
67 | AACGCTGA | 0.12
68 | CAGGATGA | 0.15
69 | ATGCGTTC | 0.0922
70 | AACTAGCT | -0.0448
71 | GAACGGCC | -0.296
72 | ATCGGAGA | -0.0563
73 | AGTGCTAG | -0.224
74 | ACGCTTGC | -0.208
75 | AAAGACGC | -0.166

Row | Sequence | PBM E-score
76 | AAACAGGG | -0.082
77 | ACCCCGAA | -0.0895
78 | AAGTCCTA | 0.186
79 | ACTACCCC | 0.0724
80 | GTGAACAA | -0.178
81 | AATCTGTC | 0.0226
82 | ACGATACA | -0.0548
83 | TATCTCCA | -0.00425
84 | CTATACAC | -0.135
85 | CCTGCCAA | -0.152
86 | AGAGGACG | -0.139
87 | CTACTTGC | 0.155
88 | GGGTGGGA | -0.139
89 | CTGGATCC | -0.105
90 | AGAAGGCG | -0.32
91 | GAACTCTC | -0.0307
92 | AATACGGT | -0.0939
93 | GATCCTTA | -0.124
94 | ACACGCAT | -0.121
95 | CACCAAAC | -0.024
96 | ATGCGCTG | -0.0746
97 | ATTACTTG | 0.19
98 | CCCCCCAA | -0.315
99 | GAGGAACA | 0.0367
100 | CCCGTGGA | 0.0223

Row | Sequence | PBM E-score
101 | GCGCCTAC | -0.0635
102 | CTGTGACC | -0.0881
103 | CCGCCGTA | -0.145
104 | AACCAGGA | 0.0408
105 | GTGACCAC | -0.0465
106 | CCTAGACC | -0.16
107 | CTACCATA | 0.0732
108 | TAGCAAAA | -0.192
109 | CGTGTAAA | -0.0317
110 | AAAAGCTC | -0.0149
111 | CGCCACGC | -0.0595
112 | CCTTGGTC | -0.0352
113 | CTATAGAG | -0.174
114 | AACTCTAT | -0.243
115 | AAATTCGT | -0.06
116 | CTAGTCTA | 0.205
117 | TCCCTGAA | 0.0531
118 | AATCTTTA | 0.18
119 | ACTACTAA | 0.25
120 | CCCGGTAA | -0.25
121 | ACCAGTTG | 0.0622
122 | CAGACAAC | -0.122
123 | ATGTAACC | -0.0155
124 | CCTACTGA | 0.0921
125 | CTCTTTCC | 0.0304

Row | Sequence | PBM E-score
126 | ACACGGAG | -0.119
127 | ACTCGGTG | 0.171
128 | AAACTTGG | -0.254
129 | ATAGCCTC | -0.0538
130 | TGTCAACA | -0.18
131 | GGGTTTCA | -0.23
132 | GCCGGATA | -0.176
133 | CGCGCTAC | 0.0734
134 | GGTCCCGA | -0.339
135 | AGCGCCTA | -0.0797
136 | CAGCTTTA | -0.123
137 | CGGGTGTC | -0.028
138 | ACTAGCCA | 0.262
139 | AAGACTCC | 0.387
140 | AACGTCCC | -0.218
141 | TAAGCCCA | -0.133
142 | AAAGGAGC | -0.151
143 | CACGCTAC | -0.185
144 | GAAGTACA | 0.0758
145 | CGATCGCC | -0.137
146 | CCAGCTAC | -0.122
147 | GAACCTCA | 0.00299
148 | GGGTCGGA | -0.146
149 | ACTGGTGG | 0.0963
150 | AAGGGTCC | -0.304

Row | Sequence | PBM E-score
151 | CTATTACA | -0.0332
152 | CGAGTGTC | -0.0109
153 | GTGGACAA | -0.144
154 | ATCGCGCC | -0.0846
155 | GGAGTAAA | 0.118
156 | AACAGCTT | -0.122
157 | GGTTAGGA | 0.0936
158 | CGGAGCGA | -0.0437
159 | AACCATAT | 0.211
160 | CAAGTGGC | -0.179
161 | GCCAAGAA | -0.139
162 | TCTCAAAA | 0.205
163 | CGGCTCCC | -0.279
164 | CGCGCTTC | -0.101
165 | ATTCGGGG | -0.0864
166 | ATAAGCTG | -0.129
167 | CACCTGAC | 0.245
168 | AGACTCAT | 0.467
169 | TAGACATA | 0.259
170 | ACTCAGAG | 0.302
171 | ACGAACCT | -0.196
172 | ATTCGGAA | 0.0644
